Out of some 150,000 compounds screened, about 6,500 (4.3%) were called active. The inconclusive results got no clear call from the source; some entries with a clear call stand among them for comparison. Calls follow the shape of the dose curve; as a rule, active = well fitted inhibition curve with a large enough effect (not every such curve was filed as active); inconclusive = small, poorly fitted or top-dose-only effect, or another doubt; inactive = no such curve, though single readings can be large or run the other way. A potency beside an inconclusive call is a rough fit, not a confirmed value.
Each compound was assayed against 15-hydroxyprostaglandin dehydrogenase [NAD(+)] (Homo sapiens) (UniProt P15428) (assay: qHTS Assay for Inhibitors of HPGD (15-Hydroxyprostaglandin Dehydrogenase)). Details: purified HPGD, NADH fluorescence kinetic, PGE2 substrate; activity change, negative = inhibition: active compounds read low.
Chain of UniProt P15428 (P15428 whole entry, looked up): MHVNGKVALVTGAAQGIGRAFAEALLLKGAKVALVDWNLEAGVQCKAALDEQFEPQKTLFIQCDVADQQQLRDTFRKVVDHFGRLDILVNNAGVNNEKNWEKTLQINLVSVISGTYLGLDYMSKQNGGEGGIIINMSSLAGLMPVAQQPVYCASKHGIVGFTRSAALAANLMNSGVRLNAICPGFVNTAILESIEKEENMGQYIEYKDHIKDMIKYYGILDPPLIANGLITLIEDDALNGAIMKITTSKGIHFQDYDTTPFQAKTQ
Procedure, shortened: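 20 nM HPGD preincubated 15 min at room temperature with compound in 50 mM Tris-HCl pH 8, 0.01% Tween 20. Started with 1 mM NAD+ and 30 uM prostaglandin E2; NADH fluorescence (360/450 nm) read 5 times over 30-s intervals, last minus first.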
% is scaled to controls: 0 for no effect and ±100 for the full control effect; potency is read from the fitted curve at half-maximal effect; tags tell the direction and shape of the fitted curve.

Potency, inconclusive:
CCN(CC)S(=O)(=O)c1ccc2[nH]cc(C(=O)NCCC3=CCCCC3)c(=O)c2c1 7.94 µM [inhibitor, partial curve]
COc1cc(-c2nn3c(-c4cccc(C)c4)nnc3s2)cc(OC)c1OC 11.2 µM [inhibitor, partial curve]
Cc1cc(N2CCCC2)ccc1/C=N/n1cnnc1 25.1 µM [inhibitor, partial curve, poor fit]
COc1ccc(-c2nc(C#N)c(NCCCN3CCOCC3)o2)cc1 28.2 µM [inhibitor, partial curve]
CCOc1ccnc(OCC)c1Br 39.8 µM [inhibitor, single point]
CCCCn1c(=O)nc2n(-c3ccc(Cl)cc3)c3ccccc3cc-2c1=O 3.98 µM [inhibitor, full curve, poor fit]
COc1ccccc1-c1nnc(NC(C)=O)s1 22.4 µM [inhibitor, partial curve]
Clc1ccc2nc3ccccn3c2c1 28.2 µM [inhibitor, partial curve]
CCOc1cc(-c2nc(-c3ccccc3OC)no2)cc(OCC)c1OCC 35.5 µM [inhibitor, single point]
COc1ccc(-c2nc(C#N)c(N3CCN(c4ccccc4)CC3)o2)cc1 35.5 µM [inhibitor, partial curve]
Cc1ccc(-c2cc(-c3ccccc3Cl)c(C#N)c(N)n2)o1 25.1 µM [inhibitor, partial curve]
COCCNC(=O)c1snc2ccc(Cl)cc12 17.8 µM [inhibitor, partial curve]
COc1ccc(-c2nc(NC(=O)c3cc(C(C)(C)C)nn3C)sc2C)cc1 31.6 µM [inhibitor, partial curve]
Cc1cc(=O)c2ccc3ccccc3c2[nH]1 31.6 µM [inhibitor, single point]
CCC(Sc1nc2sc(C(=O)OC)c(C)c2c(=O)n1N)C(=O)N(CC)CC (configuration not stated) 35.5 µM [inhibitor, single point]
Cc1ccc2c(c1)c1ncnc(N3CCC4(CC3)OCCO4)c1n2C 22.4 µM [inhibitor, partial curve]
COc1ccc(/C=C/C(=O)Nc2cc(S(=O)(=O)N3CCCCC3)ccc2N2CCCCC2)cc1OC 28.2 µM [inhibitor, single point]
CCOC(=O)c1c(NC(=O)c2nc3n(n2)C(C(F)F)CC(C)N3)sc2c1CCCC2 (configuration not stated) 28.2 µM [inhibitor, partial curve]
O=C(Nc1nc2ccccc2s1)c1cc(-c2ccco2)nc2ccccc12 31.6 µM [inhibitor, partial curve]
CCC(c1nnnn1Cc1ccc(OC)cc1)N(CCCO)Cc1cc2cc3c(cc2[nH]c1=O)OCO3 (configuration not stated) 20 µM [inhibitor, partial curve]
O=C(C1CCC1)N1CCc2cc(S(=O)(=O)NC3CCCc4ccccc43)ccc21 (configuration not stated) 20 µM [inhibitor, partial curve, poor fit]
CCOc1cc(/C=C(/C#N)C(=O)Nc2ccc(O)cc2)cc(Br)c1O 20 µM [inhibitor, partial curve]
N#CCSc1nc2ccc(N3CCCCC3)cc2c(=O)n1Cc1ccccc1 25.1 µM [inhibitor, partial curve]
Cc1cc(NC(=O)c2cc(-c3ccc4c(c3)OCO4)on2)n(-c2ccccc2)n1 25.1 µM [inhibitor, partial curve]
Cc1cc2oc(=O)cc(Cn3nnc(-c4ccc(Cl)cc4)n3)c2cc1C(C)C 35.5 µM [inhibitor, partial curve, poor fit]
N#Cc1nc(-c2ccccc2F)oc1NCc1ccccc1 28.2 µM [inhibitor, partial curve]
Cc1cc(C)cc(OCC(=O)Nc2cccc(-c3nnc(-c4ccco4)o3)c2)c1 28.2 µM [inhibitor, partial curve]
COCCn1nnnc1C(c1cc2cc(OC)ccc2[nH]c1=O)N1CCC(Cc2ccccc2)CC1 (configuration not stated) 20 µM [inhibitor, partial curve]
CCCn1c(NC(=O)c2ccc(C)cc2)nc2ccccc21 28.2 µM [inhibitor, single point]
Cc1nc(C(=O)Nc2ccc(Cl)cc2Cl)nn1-c1cc(OC(C)C)c(Cl)cc1Cl 22.4 µM [inhibitor, partial curve, poor fit]
CCP(=O)(CC)C(C)(C)CP(=O)(c1ccccc1)c1ccccc1 25.1 µM [inhibitor, partial curve]
Cn1c(=O)c2c(c3ccccc31)OC(C)(C)CC2 31.6 µM [inhibitor, single point]
O=C(NCCc1ccccc1)c1cnc2ccccn2c1=O 28.2 µM [inhibitor, partial curve]
CSc1ccc(/C=C/C(=O)c2ccc(NC(=O)C(C)C)cc2)cc1 31.6 µM [inhibitor, partial curve]
CCOC(=O)C(C)c1nc2ccccc2[nH]c1=O (configuration not stated) 35.5 µM [inhibitor, partial curve]
COc1ccc2nc(/C=N/NC(=O)[C@H](C)NC(=O)OC(C)(C)C)ccc2c1 25.1 µM [inhibitor, partial curve]
O=C(CCSc1nc(-c2ccc3c(c2)OCO3)cc(C(F)(F)F)n1)NCc1ccco1 28.2 µM [inhibitor, partial curve]
COC(=O)c1[nH]c2ccccc2c1NC(=O)CN1CCC(C(N)=O)(N2CCCCC2)CC1 25.1 µM [inhibitor, partial curve]
CC(C)=CCC/C(C)=C/COc1c2occc2cc2ccc(=O)oc12 15.8 µM [inhibitor, partial curve]
Cc1nn(-c2cc(C)c3ccccc3n2)c2c1C1C(C2)C1(C)C (configuration not stated) 20 µM [inhibitor, partial curve]

Potency, active:
O=C(Oc1ccccc1)c1ccc(NC(=O)c2ccco2)cc1 12.6 µM
Oc1ccccc1-c1cc(-c2ccccc2Cl)[nH]n1 14.1 µM
Cc1nn(-c2ccccc2)c(C)c1NC(=O)Cc1cccs1 15.8 µM
COc1ccc(-c2cnn3c(N)c(S(=O)(=O)c4ccccc4)cnc23)cc1 20 µM
O=C(c1cnn(-c2ccccc2)c1)c1ccccc1O 12.6 µM
Clc1ccccc1OCc1nnc(-c2ccccc2Br)o1 20 µM
CN(C(=O)c1cnc(N2CCN(c3ncccn3)CC2)c2ccccc12)c1ccc(Cl)cc1 22.4 µM
Cc1cccc(C)c1NC(=O)CSc1nnc(-c2ccco2)c(-c2ccco2)n1 28.2 µM
O=C(CSc1n[nH]c(-c2cc(Cl)ccc2Cl)n1)NCCN1C(=O)CSC1=O 15.8 µM
CN(C)c1nc(N)nc(CSc2ncc(Cl)cc2Cl)n1 8.91 µM
c1ccc(-c2ccc(-c3ccccn3)nn2)nc1 25.1 µM
CC(=O)N(/N=C1\Sc2ccccc2C1=O)c1cccc(C)c1 3.55 µM
CCCC(OC(=O)CN1C(=O)COc2ccccc21)C(=O)NC1CCCC1 (configuration not stated) 28.2 µM
CC1CC(C)CN(C(=O)c2ccc(CSc3nc4ccncc4[nH]3)cc2)C1 (configuration not stated) 5.62 µM
O=C(COc1ccc(Cl)cc1Cl)Nc1ccccn1 2 µM
COc1cc(-c2c(C#N)c(N)nc(SCc3ccncc3)c2C#N)cc(OC)c1OC 12.6 µM

Activity change, negative = inhibition, inactive:
C=CCSc1nnc(-c2ccccc2N=Cc2c(C)[nH]n(-c3ccccc3)c2=O)c(=O)[nH]1 -21%
Cn1cc(C=C2C(=O)Nc3cccnc32)c2ccccc21 -5.75%
CCCCn1c(SCC(=O)Nc2nccs2)nc2ccccc2c1=O 1.66%
C/C(CC(=O)NC1CCCC1)=N\NC(=O)c1ccc([N+](=O)[O-])c(Cl)c1 -14%
COC(=O)C1=C(CSCc2ccco2)NC(=O)NC1c1cc(C)ccc1C (configuration not stated) -10.2%
CCc1cc(/C(Cc2ccc3ccccc3n2)=N\O)c(O)cc1O -23.4%
COc1ccc(-c2nnc(SC(C)C(=O)Nc3ccc4c(c3)OCCO4)o2)cc1 (configuration not stated) -13%
CCCCC(=O)Nc1ccc(Br)cc1C(=O)O -19.1%
CN(c1ccc(C(=O)NCc2ccccn2)cc1)S(C)(=O)=O -25.1%
CCc1ccc(-c2c(C)sc(NC(=O)C3CCC3)c2C#N)cc1 -9.76%
COc1ccccc1N1CCN(C/C(O)=C(\C#N)c2nc(-c3ccccc3)cs2)CC1 -20.8%
CCOC(=O)/C=c1\s/c(=C(\C#N)C(=O)OCC)n(-c2ccccc2)c1=O -6.28%
CCOC(OCC)P(=O)(O)CCCNCc1ccc(Cl)c(Cl)c1 -1.61%
CC(C)(C)C(=O)Nc1cc(NC(=O)C(C)(C)C)cc(C(=O)Nc2cc(C(=O)O)cc(C(=O)O)c2)c1 -12.5%
C=CCN=C(C)C1=C(O)CCC1=O -4.91%
COC1CCCCC1Nc1ccc(C)c(C)c1 (configuration not stated) -4.92%
